Data: article PMC6856039 (Investigational New Drugs, 2019)
Like-named read-outs stand apart in the source and are kept apart here.

Assays:
[1] = system: T790M-negative NSCLC patients; type: in vivo, human; conditions: for Best overall response: Not evaluable / Best overall response: Partial response / Best overall response: Progression disease / Best overall response: Stable disease / Disease control rate / Objective response rate: T790M-negative
Description: To assess the EGFR T790M mutation tumor status, mandatorily collected plasma from patients was processed, and isolated circulating cell-free DNA (cfDNA) was submitted for laboratory testing (Fluorescence Resonance Energy Transfer-based Preferential Formation Assay [F-PHFA] method) by central review. In some patients, collected tumor biopsies were submitted for EGFR genotyping (Therascreen® EGFR RGQ PCR kit [Qiagen, Venlo, Netherlands]).
(§1) Antitumor efficacy was based on objective tumor assessments according to the Response Evaluation Criteria in Solid Tumors criteria (version 1.1, 2009). Computed tomography scans were performed at baseline, every 6 weeks after starting administration, and at the time of discontinuation. The ORR, DCR, and PFS at each phase were assessed according to dose level and regimen. ORR was defined as the proportion of patients in which the best overall response was determined to be CR or PR and was calculated in patients with measurable lesions. DCR was defined as the proportion of patients in which the best overall response was determined to be CR, PR, or stable disease. PFS was defined as the median time from enrollment to PD or death from any cause.

[2] = system: patients with progressive disease after osimertinib therapy for NSCLC; test: Extension phase Cohort C: efficacy after osimertinib treatment; type: in vivo, human
Protocol: The extension phase was conducted in four cohorts (A, B, C, and D) to investigate the safety, PK, and antitumor activity observed with the MTD or lower dose determined in the dose escalation phase. Cohort A comprised patients with T790M mutation-positive NSCLC (confirmed by blood serum sampling) and who had received prior EGFR-TKI therapy as first-line treatment. Cohort B comprised and compared T790M mutation-positive and T790M mutation-negative NSCLC patients who had received at least two prior therapies, with the immediate prior treatment being gefitinib, erlotinib, or afatinib before allocation. Cohort C comprised patients with progressive disease (PD) after osimertinib therapy for NSCLC. Cohort D comprised NSCLC patients with G719X activating mutation in the EGFR.
as §1
In Cohort C (seven patients who had previously received osimertinib treatment), QD dosing was used because the incidence of interstitial lung disease and Grade 3 embolic and thrombotic events was lower with QD dosing versus BID dosing. Cohort C started with 8 mg/day QD and one patient was registered. Subsequently, the tolerability of 10 mg/day QD was confirmed, and six patients were registered to the 10 mg/day QD group. Of the seven patients in Cohort C, the best responses were stable disease in two patients, PD in three patients, and two patients were not evaluable.

wild-type EGFR = conditions: both in vivo and in vitro; cited from earlier work
tumor xenograft model = conditions: preclinical tumor xenograft model, unpublished data
[3] = seven patients, 8 or 10 mg/day QD

## C=CC(=O)N[C@H]1CCc2c(-c3cnc4ccccc4c3)c3c(N)ncnc3n2C1 [TAS-121]
[1]; T790M-negative patients, n = 16, all patients
  objective response rate (ORR): 19%
[1]; 4 mg/day QD, N = 5
  Best overall response: Not evaluable: 1 (20.0) n (%)
  Best overall response: Partial response: 0 (0.0) n (%)
  Best overall response: Progression disease: 2 (40.0) n (%)
  Best overall response: Stable disease: 2 (40.0) n (%)
  Disease control rate: 2 (40.0) n (%)
  Objective response rate: 0 (0.0) n (%)
[1]; 8 mg/day BID, N = 1
  Best overall response: Not evaluable: 0 (0.0) n (%)
  Best overall response: Partial response: 0 (0.0) n (%)
  Best overall response: Progression disease: 0 (0.0) n (%)
  Best overall response: Stable disease: 1 (100.0) n (%)
  Disease control rate: 1 (100.0) n (%)
  Objective response rate: 0 (0.0) n (%)
[1]; 8 mg/day QD, N = 4
  Best overall response: Not evaluable: 0 (0.0) n (%)
  Best overall response: Partial response: 2 (50.0) n (%)
  Best overall response: Progression disease: 1 (25.0) n (%)
  Best overall response: Stable disease: 1 (25.0) n (%)
  Disease control rate: 3 (75.0) n (%)
  Objective response rate: 2 (50.0) n (%)
[1]; 10 mg/day QD, N = 3
  Best overall response: Not evaluable: 0 (0.0) n (%)
  Best overall response: Partial response: 1 (33.3) n (%)
  Best overall response: Progression disease: 0 (0.0) n (%)
  Best overall response: Stable disease: 2 (66.7) n (%)
  Disease control rate: 3 (100.0) n (%)
  Objective response rate: 1 (33.3) n (%)
[1]; 12 mg/day BID, N = 1
  Best overall response: Not evaluable: 0 (0.0) n (%)
  Best overall response: Partial response: 0 (0.0) n (%)
  Best overall response: Progression disease: 0 (0.0) n (%)
  Best overall response: Stable disease: 1 (100.0) n (%)
  Disease control rate: 1 (100.0) n (%)
  Objective response rate: 0 (0.0) n (%)
[1]; 12 mg/day QD, N = 1
  Best overall response: Not evaluable: 1 (100.0) n (%)
  Best overall response: Partial response: 0 (0.0) n (%)
  Best overall response: Progression disease: 0 (0.0) n (%)
  Best overall response: Stable disease: 0 (0.0) n (%)
  Disease control rate: 0 (0.0) n (%)
  Objective response rate: 0 (0.0) n (%)
[1]; 16 mg/day QD, N = 1
  Best overall response: Not evaluable: 0 (0.0) n (%)
  Best overall response: Partial response: 0 (0.0) n (%)
  Best overall response: Progression disease: 1 (100.0) n (%)
  Best overall response: Stable disease: 0 (0.0) n (%)
  Disease control rate: 0 (0.0) n (%)
  Objective response rate: 0 (0.0) n (%)
[1]; Total, N = 16
  Best overall response: Not evaluable: 2 (12.5) n (%)
  Best overall response: Partial response: 3 (18.8) n (%)
  Best overall response: Progression disease: 4 (25.0) n (%)
  Best overall response: Stable disease: 7 (43.8) n (%)
  Disease control rate: 10 (62.5) n (%)
  Objective response rate: 3 (18.8) n (%)
[2]; [3]
  best response PD, patients: three
  best response not evaluable, patients: two
  best response stable disease, patients: two
[2]; seven registered patients
  efficacy after progression during osimertinib treatment: no clear evidence of efficacy
wild-type EGFR
  effect against wild-type EGFR: moderate to no effect
Tumor xenograft model
  AUC of the effective dose: 906 ng·h/mL
